Structures can show the parent of a compound that is named as a salt. ± gives the standard deviation of the averaged measurements. The list shows a part of the results.

The test relates to murine small intestinal organoids (ENR+CD Paneth differentiation). The test is described as follows: carbachol-stimulated secreted lysozyme activity relative to plate median (log10 fold change); higher = more Paneth cell lysozyme secretion. Conditions: 0.08 µM; 6 d; carbachol 10 µM.
On to `COc1ccc(COc2ccc(Cc3cnc(N)nc3N)cc2OC)cc1`, for which the “carbachol-stimulated secreted lysozyme activity (log10)” value is 0.0183 ± 0.12.
Regarding `Cc1ccc(S(=O)(=O)OCC(=O)Nc2ccc(C(=O)O)c(O)c2)cc1`, the “carbachol-stimulated secreted lysozyme activity (log10)” value was -0.0501 ± 0.024.
The result for `CCN(c1cc(-c2ccc(CN3CCOCC3)cc2)cc(C(=O)NCc2c(C)cc(C)[nH]c2=O)c1C)C1CCOCC1` reads 0.0578 ± 0.1; that for `NC(=O)Nc1cc(-c2cccc(F)c2)sc1C(=O)N[C@H]1CCCNC1`, -0.0306 ± 0.069.
Under `COc1ccc(CNCc2cccc3ccccc23)cc1` stands 0.114 ± 0.1.
For `CC(C)CCNC(=O)[C@H](CC(C)C)NC(=O)[C@H]1O[C@@H]1C(=O)O` [Loxistatin Acid (E-64C)], the “carbachol-stimulated secreted lysozyme activity (log10)” value was determined as 0.098 ± 0.055.
Under `O=C(O)c1cccc(-c2noc(-c3ccccc3F)n2)c1` [Ataluren (PTC124)] stands 0.103 ± 0.1; under `CN(Cc1cnc2nc(N)nc(N)c2n1)c1ccc(C(=O)N[C@@H](CCC(=O)O)C(=O)O)cc1` [Methotrexate], -0.203 ± 0.06.
For the molecule `CN1C2CCCC1CC(NC(=O)c1nn(C)c3ccccc13)C2` (centres undefined) [Granisetron HCl], the “carbachol-stimulated secreted lysozyme activity (log10)” value worked out at 0.0253 ± 0.065.
Under `COc1cc(Br)c(Nc2nc(-c3c(C)nc4ncccn34)cs2)c(Br)c1` stands -0.165 ± 0.41; under `CN[C@@H](C)C(=O)N[C@H](C(=O)N1CCC[C@H]1C(=O)Nc1snnc1-c1ccccc1)C1CCCCC1`, 0.0117 ± 0.04; under `O=C1CC(=O)c2c(Cl)c(Cl)c(Cl)c(Cl)c21`, -0.00177 ± 0.11.
Turning to `COc1cc2c(cc1Cc1cccc(Cl)c1F)c(=O)c(C(=O)O)cn2[C@H](CO)C(C)C` [Elvitegravir (GS-9137, JTK-303)], the “carbachol-stimulated secreted lysozyme activity (log10)” value is -0.0681 ± 0.047.
The result for `O=[N+]([O-])c1ccc2c(c1)S(=O)(=O)C=C2` [Stattic] reads 0.0832 ± 0.21.

The record behind these values is the supplement of paper PMC9046079.
